According to the CheMixHub viscosity set:
“And” between values parts separate entries of the source, which are not always exact repeats. Identical values can stand only once. Further values from the same series stand in other lists.

Assay: xn = mol fraction of the nth substance listed

CC(C)=O + O
Conditions | viscosity
298.15 K, 101 kPa, x1 = 0.74 | 0.4509 mPa·s
298.15 K, 101 kPa, x1 = 0.775 | 0.3964 mPa·s
298.15 K, 101 kPa, x1 = 0.7999 | 0.3658 mPa·s
298.15 K, 101 kPa, x1 = 0.849 | 0.352 mPa·s
298.15 K, 101 kPa, x1 = 0.864 | 0.345 mPa·s
298.15 K, 101 kPa, x1 = 0.894 | 0.3355 mPa·s
298.15 K, 101 kPa, x1 = 0.9 | 0.3097 mPa·s
298.15 K, 101 kPa, x1 = 0.902 | 0.332 mPa·s
298.15 K, 101 kPa, x1 = 0.93 | 0.32 mPa·s
298.15 K, 101 kPa, x1 = 0.962 | 0.306 mPa·s
298.15 K, 101 kPa, x2 = 0.008 | 0.303 mPa·s
303.15 K, 101 kPa, x1 = 0.01 | 0.858 mPa·s
303.15 K, 101 kPa, x1 = 0.02 | 0.898 mPa·s
303.15 K, 101 kPa, x1 = 0.0201 | 0.932 mPa·s
303.15 K, 101 kPa, x1 = 0.04 | 1.007 mPa·s
303.15 K, 101 kPa, x1 = 0.0499 | 1.073 mPa·s
303.15 K, 101 kPa, x1 = 0.06 | 1.083 mPa·s
303.15 K, 101 kPa, x1 = 0.0702 | 1.143 mPa·s
303.15 K, 101 kPa, x1 = 0.1 | 1.206 mPa·s and 1.173 mPa·s
303.15 K, 101 kPa, x1 = 0.12 | 1.217 mPa·s
303.15 K, 101 kPa, x1 = 0.1499 | 1.219 mPa·s
303.15 K, 101 kPa, x1 = 0.1701 | 1.211 mPa·s
303.15 K, 101 kPa, x1 = 0.1999 | 1.176 mPa·s
303.15 K, 101 kPa, x1 = 0.22 | 1.143 mPa·s
303.15 K, 101 kPa, x1 = 0.2499 | 1.089 mPa·s
303.15 K, 101 kPa, x1 = 0.2701 | 1.049 mPa·s
303.15 K, 101 kPa, x1 = 0.3001 | 0.988 mPa·s
303.15 K, 101 kPa, x1 = 0.3499 | 0.883 mPa·s
303.15 K, 101 kPa, x1 = 0.4 | 0.7871 mPa·s
303.15 K, 101 kPa, x1 = 0.4502 | 0.7003 mPa·s
303.15 K, 101 kPa, x1 = 0.5001 | 0.6244 mPa·s
303.15 K, 101 kPa, x1 = 0.6 | 0.5015 mPa·s
303.15 K, 101 kPa, x1 = 0.7 | 0.4109 mPa·s
303.15 K, 101 kPa, x1 = 0.7999 | 0.3442 mPa·s
303.15 K, 101 kPa, x1 = 0.9 | 0.2899 mPa·s
303.15 K, 101.33 kPa, x1 = 0.1218 | 1.162 mPa·s
303.15 K, 101.33 kPa, x1 = 0.172 | 1.116 mPa·s
303.15 K, 101.33 kPa, x1 = 0.3122 | 0.9287 mPa·s
303.15 K, 101.33 kPa, x1 = 0.3681 | 0.8397 mPa·s
303.15 K, 101.33 kPa, x1 = 0.6042 | 0.526 mPa·s
303.15 K, 101.33 kPa, x1 = 0.7697 | 0.416 mPa·s
308.15 K, 101 kPa, x1 = 0.01 | 0.771 mPa·s
308.15 K, 101 kPa, x1 = 0.02 | 0.805 mPa·s
308.15 K, 101 kPa, x1 = 0.0201 | 0.8343 mPa·s
308.15 K, 101 kPa, x1 = 0.04 | 0.9 mPa·s
308.15 K, 101 kPa, x1 = 0.06 | 0.959 mPa·s
308.15 K, 101 kPa, x1 = 0.1 | 1.034 mPa·s
310.95 K, 101 kPa, x1 = 0.0297 | 0.8054 mPa·s
310.95 K, 101 kPa, x1 = 0.0912 | 0.9643 mPa·s
310.95 K, 101 kPa, x1 = 0.1447 | 0.9943 mPa·s
310.95 K, 101 kPa, x1 = 0.1905 | 0.9646 mPa·s
310.95 K, 101 kPa, x1 = 0.242 | 0.8974 mPa·s
310.95 K, 101 kPa, x1 = 0.299 | 0.8193 mPa·s
310.95 K, 101 kPa, x1 = 0.456 | 0.5963 mPa·s
310.95 K, 101 kPa, x1 = 0.538 | 0.5054 mPa·s
310.95 K, 101 kPa, x1 = 0.639 | 0.4241 mPa·s
310.95 K, 101 kPa, x1 = 0.776 | 0.3407 mPa·s
310.95 K, 101 kPa, x1 = 0.905 | 0.2934 mPa·s
310.95 K, 101 kPa, x2 = 0.008 | 0.2692 mPa·s
313.15 K, 101.33 kPa, x1 = 0.1218 | 0.8966 mPa·s
313.15 K, 101.33 kPa, x1 = 0.172 | 0.8596 mPa·s
313.15 K, 101.33 kPa, x1 = 0.3122 | 0.7082 mPa·s
313.15 K, 101.33 kPa, x1 = 0.3681 | 0.6751 mPa·s
313.15 K, 101.33 kPa, x1 = 0.6042 | 0.4571 mPa·s
313.15 K, 101.33 kPa, x1 = 0.7697 | 0.3565 mPa·s
323.15 K, 101.33 kPa, x1 = 0.1218 | 0.7087 mPa·s
323.15 K, 101.33 kPa, x1 = 0.173 | 0.6847 mPa·s
323.15 K, 101.33 kPa, x1 = 0.3122 | 0.6027 mPa·s
323.15 K, 101.33 kPa, x1 = 0.3681 | 0.5547 mPa·s
323.15 K, 101.33 kPa, x1 = 0.6042 | 0.4055 mPa·s
323.15 K, 101.33 kPa, x1 = 0.7697 | 0.3421 mPa·s
